# According to PubChem BioAssay AID924 (National Center for Advancing Translational Sciences (NCATS), 2007):
# About 1,200 (0.92%) of roughly 130,000 compounds were called active. Inconclusive results, whose numbers are uncertain, are shown with a selection of clear calls. Calls follow the shape of the dose curve; as a rule, active = well fitted cell-killing curve with a large enough effect; inconclusive = small, poorly fitted or top-dose-only effect; inactive = no such curve, though single readings can be large or run the other way. A potency beside an inconclusive call is a rough fit, not a confirmed value.
# Assay: qHTS Screen for Compounds that Selectively Target Cancer Cells with p53 Mutations: Cytotoxicity of p53ts Cells at the Permissive Temperature; also: nearly all actives have a fitted effect of over 55% in size;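 as to activity change, negative = cytotoxicity: 0% = DMSO and -100% = full killing by reference compound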
# Details: H1299-p53A138V at 32C, ATP luminescence viability, 24 h; activity change, negative = cytotoxicity: at 46.1 µM (top of the series)
# Method in brief: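 Cells: H1299 p53ts (A138V), 600/well, pre-incubated 16–30 h at 37C. Cpd up to 46 uM, 24 h, 32C. Readout: ATPlite luminescence, 20 min RT. Normalization: DMSO vs tamoxifen 100 uM. AC50 by Hill equation.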
# Potency is read from the fitted curve at half-maximal effect; tags tell the direction and shape of the fitted curve.
SMILES,Potency,"activity change, negative = cytotoxicity"
COc1ccc(OC)c(NC(=O)c2sc3nc4c(cc3c2N)CCCCCC4)c1,"inconclusive: 25.1 µM [cytotoxic, single point]",
CCN(CC)CCOc1ccc2c(c1)C(=NNC(=O)c1ccccn1)c1cc(OCCN(CC)CC)ccc1-2,"inconclusive: 3.55 µM [cytotoxic, full curve, poor fit]",
COC(=O)c1cccc(CN2C(=O)SC(Nc3ccc(Br)cc3)C2=O)c1 (centres undefined),inactive,
Cc1ccc2[nH]c3c(=O)n(CCCN4CCN(C)CC4)cnc3c2c1,"inconclusive: 25.1 µM [cytotoxic, single point]",
O=C(CCN1CCOCC1)c1ccc2c(c1)OCCO2,"inconclusive: 35.5 µM [cytotoxic, single point]",
COC(=O)c1c(SCC(=O)Nc2cc(F)ccc2F)[nH]c2ccc(C)cc2c1=O,inactive,
COCCNC(=O)CSc1nnc(NC(=O)Nc2ccc(C)cc2)s1,active: 11.2 µM,
CCCCOc1ccc(C(=O)Nc2onc3c2CCCC3)cc1,"inconclusive: 11.2 µM [cytotoxic, partial curve]",
CN(C)CN1C(=O)S/C(=C2/C(=O)N(CN(C)C)c3ccccc32)C1=O,,inactive: -1.29% [at 9.22 µM]
CC(C)Cn1c(=O)c2c(c3ccccc31)OC(C)C(=O)N2 (centres undefined),"inconclusive: 0.316 µM [cytotoxic, full curve, poor fit]",
Cn1c(=O)cc(OCCCC(=O)Nc2ccccn2)c2ccccc21,"inconclusive: 15.8 µM [cytotoxic, single point]",
Cc1c(C(=O)N2CCOCC2)[nH]c2c1C(=O)CC(c1ccc(Cl)cc1)C2 (centres undefined),"inconclusive: 31.6 µM [cytotoxic, single point]",
CCOC(=O)c1cc2c(=O)n3ccccc3nc2n(Cc2ccco2)c1=NC(=O)c1cc(C)cc(C)c1,"inconclusive: 2 µM [cytotoxic, full curve]",
O=c1c2c(nc3n1CCCCC3)sc1c(O)cccc12,"inconclusive: 12.6 µM [cytotoxic, partial curve]",
CC(C)c1ccc(NS(=O)(=O)c2ccc3[nH]cc(C(=O)NC4CCCCC4)c(=O)c3c2)cc1,"inconclusive: 20 µM [cytotoxic, single point]",
O=C(C1CCCCC1)N(Cc1ccccc1)c1ccccn1,inactive,
COc1ccc(O)c(C(=O)CC(=O)c2ccc(F)cc2)c1,active: 6.31 µM,
Cc1cccc(NC(=O)c2sc3cccc(Cl)c3c2Cl)c1,inactive,
Cc1ccc(C(=O)CC2(O)C(=O)N(CCc3ccccc3)c3ccc(Br)cc32)cc1 (centres undefined),"inconclusive: 35.5 µM [cytotoxic, single point]",
CCCOc1ccc(CC2C(=O)Nc3ccc(Br)cc32)cc1 (centres undefined),"inconclusive: 31.6 µM [cytotoxic, single point]",
COc1ccccc1C(=O)OCc1cc(=O)n2c(C)csc2n1,"inconclusive: 12.6 µM [cytotoxic, partial curve]",
COc1ccc2nc(N3CCCC(C(=O)NCCCN4CCN(C)CC4)C3)sc2c1 (centres undefined),active: 12.6 µM,

SMILES,Potency,"activity change, negative = cytotoxicity"
CC(=O)NC(c1ccco1)c1ccc2cccnc2c1O (centres undefined),"inconclusive: 2.51 µM [cytotoxic, full curve, poor fit]",
Cc1ccc2scc(N3CCCC(C)C3)c(=O)c2c1 (centres undefined),active: 12.6 µM,
Cc1ccc(-n2nc3c(N4CCCC(C(=O)NCc5ccccc5C)C4)nnc(C)c3c2C)cc1 (centres undefined),"inconclusive: 25.1 µM [cytotoxic, single point]",
O=C(Nc1ccc2c(c1)CCCN2C(=O)c1cccs1)c1ccccc1C(F)(F)F,"inconclusive: 7.94 µM [cytotoxic, partial curve]",
COc1ccc(-c2cc(C(=O)Oc3ccc(Br)cc3)c3ccccc3n2)cc1,"inconclusive: 20 µM [cytotoxic, single point]",
COc1ccc(-c2cc3nc4c(c(=O)n3[nH]2)CCC4)cc1,"inconclusive: 6.31 µM [cytotoxic, full curve, poor fit]",
CCN(CC)S(=O)(=O)c1cc(C(=O)Nc2nncs2)c(Cl)cc1Cl,"inconclusive: 12.6 µM [cytotoxic, single point]",
N#Cc1c(/N=C/c2cccs2)sc2c1CCCCC2,active: 7.94 µM,
COC(=O)CCn1nnc(-c2ccc(C(C)C)cc2)n1,"inconclusive: 15.8 µM [cytotoxic, single point]",
COc1ccccc1Nc1nc2ccccc2[nH]1,"inconclusive: 15.8 µM [cytotoxic, partial curve]",
CCCOC(=O)c1ccc(Oc2cn[nH]c2-c2ccc(OC)cc2O)cc1,"inconclusive: 25.1 µM [cytotoxic, single point]",
O=C(NCCCN1CCN(c2cccc(Cl)c2)CC1)c1cnn(-c2ccc(F)cc2)c1-n1cccc1,"inconclusive: 12.6 µM [cytotoxic, single point]",
O=C(Nc1ccc2oc(-c3cc(Br)ccc3Cl)nc2c1)c1cc2ccccc2o1,"inconclusive: 7.94 µM [cytotoxic, partial curve]",
O=C(c1cnn2c(C(F)(F)F)cc(-c3ccc4c(c3)OCO4)nc12)N1CCCCC1,inactive,
c1ccc(COc2ccc(OCCOCCn3cncn3)cc2)cc1,"inconclusive: 10 µM [cytotoxic, partial curve]",
Fc1ccc(-n2ncc3c(NC4CCCCCC4)ncnc32)cc1,"inconclusive: 12.6 µM [cytotoxic, partial curve]",
CCNC(=O)CC1C(=O)N(c2ccc(F)cc2)C(=O)N1CCOC (centres undefined),inactive,
CCc1ccccc1N1CC(c2nc3ccccc3n2CCCOc2ccc(Cl)cc2)CC1=O (centres undefined),"inconclusive: 31.6 µM [cytotoxic, single point]",
O=C(NCc1cccs1)C1CCC(CNS(=O)(=O)c2cccs2)CC1 (centres undefined),"inconclusive: 0.631 µM [cytotoxic, full curve, poor fit]",
CCOc1ccccc1NC(=O)Cn1c(=O)n(CCC(=O)NCc2ccc3c(c2)OCO3)c(=O)c2ccccc21,inactive,
CCCC(c1nnnn1C1CCCC1)N1CCN(c2ccccc2F)CC1 (centres undefined),inactive,
Cn1c(-c2ccc(C(C)(C)C)cc2)n[nH]c1=S,inactive,
